The whole screen tested about 320,000 compounds, of which about 200 (0.062%) were called active. Inconclusive results, whose numbers are uncertain, are shown with a selection of clear calls. Calls come from the whole dose curve; as a rule, active = well fitted activation curve with a large enough effect; inconclusive = small, poorly fitted or top-dose-only effect; inactive = no such curve, though single readings can be large or run the other way. Potencies of inconclusive entries are left out as doubtful fits.
assay: qHTS assay for re-activators of p53 using a Luc reporter; conditions: H1299 p53-A138V BP100-luciferase reporter, luminescence, 24 h; series mostly up to 92.2 µM; activity change, positive = activation: at the top concentration; note: nearly all actives have a fitted effect of over 45% in size; for activity change, positive = activation: % of control where 0% means no effect
Procedure, shortened: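 p53-null H1299 cells stably carrying temperature-sensitive p53-A138V and a BP100-luciferase reporter were pinned with compounds (4-point, 1:5 series) and held 24 hrs at 37 deg C. Luminescence was read 10 min after detection reagent.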
Potency is the fitted concentration of half-maximal effect; tags give direction and shape of the fitted curve.

Row | SMILES | Potency | activity change, positive = activation
1 | CCOc1ccc(C(=O)COC(=O)C2COc3ccccc3O2)cc1 (centres undefined) | inconclusive [activator, full curve, poor fit] | –
2 | Cc1ccc(-c2nc(N=Nc3ccc(O)cc3)n[nH]2)cc1 | inconclusive [activator, partial curve, poor fit] | –
3 | COC(=O)c1ccc(NC(=O)c2ccc(CN3CCOCC3)cc2)cc1 | – | inactive: 7.38%
4 | N#CC1=C2SCN(c3ccccc3)CN2C(=O)CC1c1c(Cl)cccc1Cl (centres undefined) | inconclusive [activator, single point] | –
5 | CN(C)CCCN(C(=O)c1cc2cc([N+](=O)[O-])ccc2s1)c1nc2cc3c(cc2s1)OCCO3 | inconclusive [activator, full curve, poor fit] | –
6 | CCCCCCNCC1OCc2ccccc2CO1 | – | inactive: -7.52%
7 | Cc1c(C(=O)O)sc(=S)n1CCOc1ccccc1 | inconclusive [activator, partial curve] | –
8 | CCOc1ccc(NS(=O)(=O)c2cc(C(=O)NCCN3CCOCC3)ccc2C)cc1 | – | inactive: -1.5%
9 | Oc1ccc(-c2csc(NCc3ccco3)n2)cc1 | inconclusive [activator, partial curve, poor fit] | –
10 | Nc1c(N(Cc2ccco2)C(=O)c2ccc(Br)cc2)c(=O)[nH]c(=O)n1Cc1ccccc1 | – | inactive: 6.2%
11 | Cn1ccnc1SCC(=O)N(C1CCCCC1)C1CCCCC1 | – | inactive: -5.71%
12 | COc1ccc(Cl)cc1NC(=O)CSc1cccc[n+]1[O-] | inconclusive [activator, single point] | –
13 | Clc1ccc(-c2nc(-c3ccccn3)no2)cc1Cl | inconclusive [activator, partial curve, poor fit] | –
14 | CC(C)N(C(=O)NC(=O)Nc1ccccn1)S(C)(=O)=O | – | inactive: 18.2%
15 | CC(C)(C)C1CCc2nc(NC(=O)Cc3cn4ccsc4n3)sc2C1 (centres undefined) | inconclusive [activator, partial curve, poor fit] | –
16 | Cc1c(Cl)cnc(NC(=O)CSc2nnc3ccccn23)c1Cl | inconclusive [activator, partial curve, poor fit] | –
17 | C=CCn1c(COc2ccccc2)nnc1SCC(=O)N/N=C/c1ccc(C)cc1 | – | inactive: -3.43%
18 | COc1ccccc1C(=O)C1CCCN(C(=O)c2cn3cc(Cl)ccc3n2)C1 (centres undefined) | – | inactive: 0.961%
19 | Cc1c2ccccc2c(C)c2c1ccc1ccccc12 | inconclusive [activator, partial curve, poor fit] | –
20 | CC1CC(=O)C2=C(C1)OC(N)=C(C#N)C2c1coc2ccccc2c1=O (centres undefined) | inconclusive [activator, single point] | –
21 | Nc1ccc2c(c1)COc1ccccc1O2 | inconclusive [activator, full curve, poor fit] | –
22 | COc1ccc(C(CNC(=O)c2ccc(N3CCCC3=O)cc2)N(C)C)cc1 (centres undefined) | inconclusive [activator, single point] | –
23 | Cc1cc(SCC(=O)OC(C)C(=O)N(C)c2ccccc2)nc2ccccc12 (centres undefined) | – | inactive: -5.01%

Row | SMILES | Potency | activity change, positive = activation
24 | Oc1ccc2ccccc2c1C=Nc1ccccc1-c1nc2ccccc2[nH]1 | inconclusive [activator, partial curve, poor fit] | –
25 | O=C(Cn1ccc(NC(=O)OCc2ccccc2)nc1=O)NCCCN1CCCC1=O | – | inactive: 1.79%
26 | O=C(NC1CC1)c1cccc(NC(=O)c2cc(S(=O)(=O)N3CCOCC3)ccc2Cl)c1 | – | inactive: -4.8%
27 | CCCC(CCC)C(=O)OC1C[C@H]2CC[C@@H](C1)[N+]2(C)C (some centres undefined) | – | inactive: 6.88%
28 | Cc1ccc(/C=N/NC(=O)c2ccoc2C)o1 | inconclusive [activator, partial curve, poor fit] | –
29 | CCc1cc(C(=O)N/N=C/c2ccc(O)cc2O)c2ccccc2n1 | inconclusive [activator, partial curve, poor fit] | –
30 | CCc1cc2c(SCC(=O)c3cccs3)ncnc2s1 | inconclusive [activator, single point] | –
31 | O=[N+]([O-])c1cccc(-c2ccc(C(=S)N3CCOCC3)o2)c1 | inconclusive [activator, single point] | –
32 | Cc1cccc(C)c1NC(=O)CNC(=O)CCCc1c[nH]c2ccccc12 | – | inactive: 1.28%
33 | c1ccc(CCc2nc3ccccc3[nH]2)cc1 | – | inactive: 2.57%
34 | Cc1ccc(S(=O)(=O)Nc2ccccc2CNc2ccc(Br)cn2)cc1 | – | inactive: 1.57%
35 | O=C(NN=C1CCCC1)c1cccs1 | inconclusive [activator, full curve, poor fit] | –
36 | Cc1ccc(N=Nc2ccc(N)cc2C)c(S(N)(=O)=O)c1 | inconclusive [activator, full curve, poor fit] | –
37 | O=C(/C=C/c1cccs1)Nc1sc2c(c1C(=O)O)CCCC2 | inconclusive [activator, partial curve, poor fit] | –
38 | O=C(N/N=C(\Cc1ncc[nH]1)c1ccccc1)c1cccnc1 | inconclusive [activator, partial curve, poor fit] | –
39 | Nc1c(C(=O)Nc2nccs2)sc2nc(-c3cccs3)cc(C(F)(F)F)c12 | – | inactive: 5.34%
40 | COc1ccc(C(=O)Nc2ccc(-c3ccc(NC(=O)c4ccc(OC)cc4)c(OC)c3)cc2OC)cc1 | – | inactive: -5.39%
41 | Nc1nnc(N2CCc3ccccc32)s1 | inconclusive [activator, single point] | –
42 | COc1ccc(CCC(C(O)C(F)(F)F)S(=O)c2ccccc2)cc1 (centres undefined) | inconclusive [activator, single point] | –
43 | Cc1ccc(-c2noc(-c3cc4ccccc4oc3=O)n2)cc1 | – | inactive: 26.7%
44 | COc1ccccc1C1=NOC(CN2C(=O)c3ccccc3S2(=O)=O)C1 (centres undefined) | inconclusive [activator, partial curve, poor fit] | –
45 | O=C(Nc1nc2cc3c(cc2s1)OCCO3)c1ccc([N+](=O)[O-])o1 | inconclusive [activator, partial curve, poor fit] | –
46 | Fc1ccc(N=C2NN=C(c3cc(F)ccc3F)CS2)cc1 | inconclusive [activator, partial curve, poor fit] | –

Row | SMILES | Potency | activity change, positive = activation
47 | O=C(Cn1nnc2ccccc21)c1ccc(Br)cc1 | – | inactive: 9.9%
48 | O=C(CCCN1C(=O)S/C(=C\C=C\c2ccccc2)C1=O)Nc1ccc(C(=O)O)cc1 | inconclusive [activator, partial curve, poor fit] | –
49 | CC1CCCC(C)N1C(=O)COC(=O)/C=C/c1ccco1 (centres undefined) | inconclusive [activator, full curve, poor fit] | –
50 | CCc1c(C)nc2[nH]nc(-c3ccccc3C)n2c1=O | – | inactive: 20.4%
51 | NC(=O)c1ccc(NC(=O)Nc2ccc3c(c2)OCO3)cc1 | inconclusive [activator, partial curve, poor fit] | –
52 | COc1ccc(N=Cc2c(O)cc(C)oc2=O)cc1 | inconclusive [activator, single point] | –
53 | CN(C)c1ccc(N/C=C/C(=O)c2ccc(F)cc2)cc1 | inconclusive [activator, partial curve, poor fit] | –
54 | COc1ccc2nc(N3CCN(C(=O)c4ccc([N+](=O)[O-])o4)CC3)sc2c1 | inconclusive [activator, partial curve, poor fit] | –
55 | O=C(CSc1nc2nn(-c3ccccc3)c(=O)c-2c2n1CCCCC2)Nc1ccccc1[N+](=O)[O-] | inconclusive [activator, single point] | –
56 | CCOc1ccc(NC(=O)CSc2nnc(C)n2CC)cc1 | inconclusive [activator, single point] | –
57 | COCCn1c(C)cc(C(=O)CSc2ncn[nH]2)c1C | inconclusive [activator, full curve, poor fit] | –
58 | COc1ccc(/C=N/Nc2nonc2N)cc1 | – | inactive: 25.9%
59 | CN1C(=O)CC(N2CCC(C(N)=O)(N3CCCCC3)CC2)C1=O (centres undefined) | inconclusive [activator, single point] | –
60 | Cc1nnsc1S(=O)c1ccc(Br)cc1 (centres undefined) | inconclusive [activator, partial curve, poor fit] | –
61 | Cc1cc(/C=C2\Cc3ccccc3C2=O)c(C)n1-c1ccccc1 | inconclusive [activator, partial curve, poor fit] | –
62 | CCn1c(=O)cc(SCC(=O)NCCN2CCN(Cc3ccccc3)CC2)c2ccccc21 | inconclusive [activator, single point] | –
63 | Cc1ccc(C2=NCCn3c2c2ccc([N+](=O)[O-])cc2[n+]3[O-])cc1 | inconclusive [activator, single point] | –
64 | Cc1cc(OCC(=O)O/N=C(\N)c2ccccc2)ccc1Cl | inconclusive [activator, full curve, poor fit] | –
65 | O=C(Nc1ncc([N+](=O)[O-])s1)C1CCN(S(=O)(=O)c2cnc[nH]2)CC1 | inconclusive [activator, single point] | –
66 | Nc1c(C(=O)CSc2ccccn2)c(=O)[nH]c(=O)n1C1CC1 | inconclusive [activator, partial curve, poor fit] | –
67 | COC(=O)c1ccc(C2OCC(C)(C)CO2)cc1 | inconclusive [activator, partial curve, poor fit] | –
68 | Cn1c(-c2ccccc2)cc2c3no[n+]([O-])c3ccc21 | active: 7.08 µM | –
69 | COc1ccc(N2CCN(C3CCCN(Cc4cccc(OC)c4)C3)CC2)cc1 (centres undefined) | inconclusive [activator, partial curve, poor fit] | –

Source: PubChem BioAssay AID504706 (National Center for Advancing Translational Sciences (NCATS), 2011)
